{"source": "the supplement of paper PMC8728848", "assay_in_all_cases": "glycan array binding signal (z-score within array); higher = stronger binding", "settings_in_all_cases": "glycan notation: IUPAC condensed, linker removed", "key": {"[1]": {"molecular_target": "GlcNAc(b1-4)GlcNAc(b1-4)GlcNAc(b1-4)GlcNAc(b1-4)GlcNAc", "method_in_brief": "(§1)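 From the Consortium for Functional Glycomics database, 3228 arrays were curated, keeping only those whose protein sequence was available. Binding is given as a within-array Z-score averaged across arrays sharing a protein sequence and across linkers. Negative Z-scores can be read as non-binding.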"}, "[2]": {"molecular_target": "GlcNAc(b1-4)GlcNAc(b1-4)GlcNAc(b1-4)GlcNAc(b1-4)GlcNAc(b1-4)GlcNAc", "method_in_brief": "as §1"}, "[3]": {"molecular_target": "GlcNAc(b1-4)[GlcNAc(b1-6)]GalNAc", "method_in_brief": "as §1"}, "[4]": {"molecular_target": "GlcNAc(b1-6)Gal(b1-4)GlcNAc", "method_in_brief": "as §1"}, "[5]": {"molecular_target": "GlcNAc(b1-6)GalNAc", "method_in_brief": "as §1"}, "[6]": {"molecular_target": "Kdn(a2-3)Gal(b1-3)GlcNAc", "method_in_brief": "as §1"}, "[7]": {"molecular_target": "Kdn(a2-3)Gal(b1-4)GlcNAc", "method_in_brief": "as §1"}, "[8]": {"molecular_target": "Man(a1-2)Man(a1-2)Man(a1-3)Man", "method_in_brief": "as §1"}, "[9]": {"molecular_target": "Man(a1-2)Man(a1-2)Man(a1-6)[Man(a1-3)]Man", "method_in_brief": "as §1"}, "[10]": {"molecular_target": "Man(a1-2)Man(a1-3)Man", "method_in_brief": "as §1"}, "[11]": {"molecular_target": "Man(a1-2)Man(a1-3)[Man(a1-2)Man(a1-6)]Man", "method_in_brief": "as §1"}, "[12]": {"molecular_target": "Man(a1-2)Man(a1-3)[Man(a1-2)Man(a1-6)]Man(a1-6)[Man(a1-2)Man(a1-2)Man(a1-3)]Man(b1-4)GlcNAc(b1-4)GlcNAc", "method_in_brief": "as §1"}, "[13]": {"molecular_target": "Man(a1-2)Man(a1-3)[Man(a1-6)]Man(a1-6)[Man(a1-2)Man(a1-3)]Man(b1-4)GlcNAc(b1-4)GlcNAc", "method_in_brief": "as §1"}, "[14]": {"molecular_target": "Man(a1-2)Man(a1-6)[Man(a1-3)]Man(a1-6)[Man(a1-2)Man(a1-2)Man(a1-3)]Man(b1-4)GlcNAc(b1-4)GlcNAc", "method_in_brief": "as §1"}, "[15]": {"molecular_target": "Man(a1-3)[Man(a1-6)]Man", "method_in_brief": "as §1"}, "[16]": {"molecular_target": "Man(a1-3)[Man(a1-6)]Man(a1-6)[Man(a1-2)Man(a1-3)]Man(b1-4)GlcNAc(b1-4)GlcNAc", "method_in_brief": "as §1"}, "[17]": {"molecular_target": "Man(a1-3)[Man(a1-6)]Man(a1-6)[Man(a1-3)]Man(b1-4)GlcNAc(b1-4)GlcNAc", "method_in_brief": "as §1"}, "[18]": {"molecular_target": "Man(a1-3)[Man(a1-6)]Man(b1-4)GlcNAc(b1-4)GlcNAc", "method_in_brief": "as §1"}, "[19]": {"molecular_target": "Man(b1-4)GlcNAc", "method_in_brief": "as §1"}, "[20]": {"molecular_target": "Neu5Ac(a2-3)Gal", "method_in_brief": "as §1"}, "[21]": {"molecular_target": "Neu5Ac(a2-3)Gal(b1-3)GalNAc", "method_in_brief": "as §1"}, "[22]": {"molecular_target": "Neu5Ac(a2-3)Gal(b1-3)GalNAc(b1-3)Gal(a1-4)Gal(b1-4)Glc", "method_in_brief": "as §1"}, "[23]": {"molecular_target": "Neu5Ac(a2-3)Gal(b1-3)GalNAc(b1-3)Gal(b1-4)GlcNAc", "method_in_brief": "as §1"}, "[24]": {"molecular_target": "Neu5Ac(a2-3)Gal(b1-3)GalNAc(b1-4)[Neu5Ac(a2-3)]Gal(b1-4)Glc", "method_in_brief": "as §1"}, "[25]": {"molecular_target": "Neu5Ac(a2-3)Gal(b1-3)GalNAc6S", "method_in_brief": "as §1"}, "[26]": {"molecular_target": "Neu5Ac(a2-3)Gal(b1-3)GlcNAc", "method_in_brief": "as §1"}, "[27]": {"molecular_target": "Neu5Ac(a2-3)Gal(b1-3)GlcNAc6S", "method_in_brief": "as §1"}, "[28]": {"molecular_target": "Neu5Ac(a2-3)Gal(b1-3)[Fuc(a1-4)]GlcNAc", "method_in_brief": "as §1"}, "[29]": {"molecular_target": "Neu5Ac(a2-3)Gal(b1-3)[Fuc(a1-4)]GlcNAc(b1-3)Gal(b1-4)[Fuc(a1-3)]GlcNAc", "method_in_brief": "as §1"}, "[30]": {"molecular_target": "Neu5Ac(a2-3)Gal(b1-3)[Neu5Ac(a2-3)Gal(b1-4)]GlcNAc", "method_in_brief": "as §1"}, "[31]": {"molecular_target": "Neu5Ac(a2-3)Gal(b1-3)[Neu5Ac(a2-6)]GalNAc", "method_in_brief": "as §1"}, "[32]": {"molecular_target": "Neu5Ac(a2-3)Gal(b1-4)Glc", "method_in_brief": "as §1"}, "[33]": {"molecular_target": "Neu5Ac(a2-3)Gal(b1-4)GlcNAc", "method_in_brief": "as §1"}, "[34]": {"molecular_target": "Neu5Ac(a2-3)Gal(b1-4)GlcNAc(b1-3)Gal(b1-4)GlcNAc", "method_in_brief": "as §1"}, "[35]": {"molecular_target": "Neu5Ac(a2-3)Gal(b1-4)GlcNAc(b1-3)Gal(b1-4)GlcNAc(b1-3)Gal(b1-4)GlcNAc", "method_in_brief": "as §1"}, "[36]": {"molecular_target": "Neu5Ac(a2-3)Gal(b1-4)GlcNAc(b1-3)Gal(b1-4)[Fuc(a1-3)]GlcNAc", "method_in_brief": "as §1"}, "[37]": {"molecular_target": "Neu5Ac(a2-3)Gal(b1-4)GlcNAc6S", "method_in_brief": "as §1"}}, "note": "The other results are listed elsewhere or left out.", "data": [{"binder": "DEC205 (Homo sapiens), O60449 (protein) MRTGWATPRRPAGLLMLLFWFFDLAEPSGRAANDPFTIVHGNTGKCIKPVYGWIVADDCDETEDKLWKWVSQHRLFHLHSQKCLGLDITKSVNELRMFSCDSSAMLWWKCEHHSLYGAARYRLALKDGHGTAISNASDVWKKGGSEESLCDQPYHEIYTRDGNSYGRPCEFPFLIDGTWHHDCILDEDHSGPWCATTLNYEYDRKWGICLKPENGCEDNWEKNEQFGSCYQFNTQTALSWKEAYVSCQNQGADLLSINSAAELTYLKEKEGIAKIFWIGLNQLYSARGWEWSDHKPLNFLNWDPDRPSAPTIGGSSCARMDAESGLWQSFSCEAQLPYVCRKPLNNTVELTDVWTYSDTRCDAGWLPNNGFCYLLVNESNSWDKAHAKCKAFSSDLISIHSLADVEVVVTKLHNEDIKEEVWIGLKNINIPTLFQWSDGTEVTLTYWDENEPNVPYNKTPNCVSYLGELGQWKVQSCEEKLKYVCKRKGEKLNDASSDKMCPPDEGWKRHGETCYKIYEDEVPFGTNCNLTITSRFEQEYLNDLMKKYDKSLRKYFWTGLRDVDSCGEYNWATVGGRRRAVTFSNWNFLEPASPGGCVAMSTGKSVGKWEVKDCRSFKALSICKKMSGPLGPEEASPKPDDPCPEGWQSFPASLSCYKVFHAERIVRKRNWEEAERFCQALGAHLSSFSHVDEIKEFLHFLTDQFSGQHWLWIGLNKRSPDLQGSWQWSDRTPVSTIIMPNEFQQDYDIRDCAAVKVFHRPWRRGWHFYDDREFIYLRPFACDTKLEWVCQIPKGRTPKTPDWYNPDRAGIHGPPLIIEGSEYWFVADLHLNYEEAVLYCASNHSFLATITSFVGLKAIKNKIANISGDGQKWWIRISEWPIDDHFTYSRYPWHRFPVTFGEECLYMSAKTWLIDLGKPTDCSTKLPFICEKYNVSSLEKYSPDSAAKVQCSEQWIPFQNKCFLKIKPVSLTFSQASDTCHSYGGTLPSVLSQIEQDFITSLLPDMEATLWIGLRWTAYEKINKWTDNRELTYSNFHPLLVSGRLRIPENFFEEESRYHCALILNLQKSPFTGTWNFTSCSERHFVSLCQKYSEVKSRQTLQNASETVKYLNNLYKIIPKTLTWHSAKRECLKSNMQLVSITDPYQQAFLSVQALLHNSSLWIGLFSQDDELNFGWSDGKRLHFSRWAETNGQLEDCVVLDTDGFWKTVDCNDNQPGAICYYSGNETEKEVKPVDSVKCPSPVLNTPWIPFQNCCYNFIITKNRHMATTQDEVHTKCQKLNPKSHILSIRDEKENNFVLEQLLYFNYMASWVMLGITYRNNSLMWFDKTPLSYTHWRAGRPTIKNEKFLAGLSTDGFWDIQTFKVIEEAVYFHQHSILACKIEMVDYKEEHNTTLPQFMPYEDGIYSVIQKKVTWYEALNMCSQSGGHLASVHNQNGQLFLEDIVKRDGFPLWVGLSSHDGSESSFEWSDGSTFDYIPWKGQTSPGNCVLLDPKGTWKHEKCNSVKDGAICYKPTKSKKLSRLTYSSRCPAAKENGSRWIQYKGHCYKSDQALHSFSEAKKLCSKHDHSATIVSIKDEDENKFVSRLMRENNNITMRVWLGLSQHSVDQSWSWLDGSEVTFVKWENKSKSGVGRCSMLIASNETWKKVECEHGFGRVVCKVPLGPDYTAIAIIVATLSILVLMGGLIWFLFQRHRLHLAGFSSVRYAQGVNEDEIMLPSFHD", "values": [{"measurement": "glycan array binding signal (z-score)", "setting": "[1]", "result": -0.327}, {"measurement": "glycan array binding signal (z-score)", "setting": "[2]", "result": -0.135}, {"measurement": "glycan array binding signal (z-score)", "setting": "[3]", "result": -0.219}, {"measurement": "glycan array binding signal (z-score)", "setting": "[4]", "result": -0.071}, {"measurement": "glycan array binding signal (z-score)", "setting": "[5]", "result": -0.308}, {"measurement": "glycan array binding signal (z-score)", "setting": "[6]", "result": 0.019}, {"measurement": "glycan array binding signal (z-score)", "setting": "[7]", "result": 1.75}, {"measurement": "glycan array binding signal (z-score)", "setting": "[8]", "result": -0.119}, {"measurement": "glycan array binding signal (z-score)", "setting": "[9]", "result": -0.311}, {"measurement": "glycan array binding signal (z-score)", "setting": "[10]", "result": -0.327}, {"measurement": "glycan array binding signal (z-score)", "setting": "[11]", "result": -0.072}, {"measurement": "glycan array binding signal (z-score)", "setting": "[12]", "result": 0.357}, {"measurement": "glycan array binding signal (z-score)", "setting": "[13]", "result": -0.041}, {"measurement": "glycan array binding signal (z-score)", "setting": "[14]", "result": -0.18}, {"measurement": "glycan array binding signal (z-score)", "setting": "[15]", "result": -0.18}, {"measurement": "glycan array binding signal (z-score)", "setting": "[16]", "result": -0.327}, {"measurement": "glycan array binding signal (z-score)", "setting": "[17]", "result": -0.154}, {"measurement": "glycan array binding signal (z-score)", "setting": "[18]", "result": -0.47}, {"measurement": "glycan array binding signal (z-score)", "setting": "[19]", "result": -0.273}, {"measurement": "glycan array binding signal (z-score)", "setting": "[20]", "result": -0.168}, {"measurement": "glycan array binding signal (z-score)", "setting": "[21]", "result": -0.274}, {"measurement": "glycan array binding signal (z-score)", "setting": "[22]", "result": -0.177}, {"measurement": "glycan array binding signal (z-score)", "setting": "[23]", "result": 0.121}, {"measurement": "glycan array binding signal (z-score)", "setting": "[24]", "result": -0.242}, {"measurement": "glycan array binding signal (z-score)", "setting": "[25]", "result": -0.225}, {"measurement": "glycan array binding signal (z-score)", "setting": "[26]", "result": -0.209}, {"measurement": "glycan array binding signal (z-score)", "setting": "[27]", "result": -0.051}, {"measurement": "glycan array binding signal (z-score)", "setting": "[28]", "result": -0.003}, {"measurement": "glycan array binding signal (z-score)", "setting": "[29]", "result": -0.019}, {"measurement": "glycan array binding signal (z-score)", "setting": "[30]", "result": -0.395}, {"measurement": "glycan array binding signal (z-score)", "setting": "[31]", "result": -0.263}, {"measurement": "glycan array binding signal (z-score)", "setting": "[32]", "result": 0.09}, {"measurement": "glycan array binding signal (z-score)", "setting": "[33]", "result": -0.207}, {"measurement": "glycan array binding signal (z-score)", "setting": "[34]", "result": -0.332}, {"measurement": "glycan array binding signal (z-score)", "setting": "[35]", "result": 0.774}, {"measurement": "glycan array binding signal (z-score)", "setting": "[36]", "result": -0.041}, {"measurement": "glycan array binding signal (z-score)", "setting": "[37]", "result": -0.318}]}]}
